Laboratory results as given in PubChem BioAssay AID445 (National Center for Advancing Translational Sciences (NCATS), 2006).
In all, about 110,000 compounds went through this assay and about 40 (0.04%) were called active. The shares of active, inactive and inconclusive entries below differ from those in the screen. Calls come from the whole dose curve; as a rule, active = well fitted curve in the direction sought with a large enough effect in the signal ratio (not every such curve was filed as active); inconclusive = small, poorly fitted or top-dose-only effect, or a change in a side signal; inactive = flat fitted curve, though single readings scatter; the % refers to the signal ratio. Where the call is inconclusive, the potency comes from a doubtful curve fit.

Assay: IkB Signaling;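 for IkBa stabilization activation: 0% = basal untreated cells and 100% = reference inhibitor full response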
Conditions: ABC-DLBCL IkBa-CBG/CBR dual luciferase ratio (green luciferase fused to IkBa over red control in OCI-Ly3 lymphoma cells), 4 h; IkBa stabilization activation: at 57.1 µM (top of the series), scaled: untreated 0%, proteasome inhibitor 100% unless noted
Procedure, shortened: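 In this assay, an IκBα–CBG68 fusion accumulates when IKK-driven degradation is blocked; native CBR normalizes for cell number. OCI-Ly3 cells were treated 4 h with compound and doxycycline, then green and red light read after Chroma-Glo addition.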
Potency is the fitted concentration of half-maximal effect.

Row | SMILES | Potency | IkBa stabilization activation
1 | COc1ccccc1-c1cc(C(=O)N2CCN(c3ccccc3)CC2)no1 | inconclusive: 1.58 µM [signal inhibitor, partial curve] | –
2 | c1coc(CN(Cc2cccs2)Cc2nnnn2C2CCCCC2)c1 | – | inconclusive: 3.17% [signal inhibitor]
3 | CCOc1ccc2nc(NC(=O)C3CCCN(S(=O)(=O)c4cccs4)C3)sc2c1 (stereo not given) | – | inconclusive: 4.9% [signal inhibitor]
4 | COc1cc(OC)c(NC(=O)NCCn2nnc3cc(S(=O)(=O)N(C)C)ccc32)cc1Cl | – | inconclusive: -0.139% [signal inhibitor]
5 | CCOc1ccc(CCNC(=O)C(CC)n2nc(C)c3c(C)n(-c4ccccc4)nc3c2=O)cc1 (stereo not given) | – | inconclusive: -0.834% [signal inhibitor]
6 | CCCCSCCCNC(=O)C1CCN(Cc2nc(-c3ccc(CC)cc3)oc2C)CC1 | – | inconclusive: 0.00978% [signal inhibitor]
7 | CCOC(=O)c1c(C)[nH]c(C)c1S(=O)(=O)N1CCC(C(=O)NCc2ccc(F)cc2)CC1 | – | inconclusive: -2.18% [signal activator]
8 | COc1ccc(-c2c(C#N)c(SCC(=O)Nc3ccc(C)c(C)c3)nc(C)c2C(=O)Nc2ccc(Cl)cc2)cc1 | – | inconclusive: 10.6% [signal inhibitor]
9 | c1ccc(/C(=N/Nc2nc3ccccc3s2)c2ccccn2)cc1 | inconclusive: 1.26 µM [signal inhibitor, partial curve] | –
10 | Cc1nc2ccn(Cc3cccnc3)c(=O)c2cc1C(=O)NCc1ccccc1 | – | inactive
11 | O=C(CSc1nnc(-c2ccccc2Br)n1-c1ccccc1)c1ccc(F)cc1 | – | inconclusive: 11.3% [signal inhibitor]
12 | CC(C)Cn1c(N)c(C(=O)NCC2CCCO2)c2nc3ccccc3nc21 (stereo not given) | – | inconclusive: 7.36% [signal inhibitor]
13 | CCc1nnc(NC(=O)CSc2nnc(-c3ccccc3OC)n2-c2ccccc2)s1 | – | inactive
14 | O=c1cc(-c2ccccc2)nc2nc(CCc3ccccc3)[nH]n12 | – | inactive
15 | COC(=O)c1ccc(OCC2c3cc(OC)c(OC)cc3CCN2C(=O)c2ccc(OC)cc2)cc1 (stereo not given) | – | inactive
16 | Cn1nnnc1SCCCNCc1cc(Br)ccc1OCc1ccccc1 | – | inconclusive: 0.0565% [signal inhibitor]
17 | N#CCCn1c(=O)c(-c2cccs2)nc2cnc(N3CCOCC3)nc21 | – | inactive: -2.25% [at 11.4 µM, scaled: untreated 0%, proteasome inhibitor 100%]
18 | Cc1nc2sccn2c(=O)c1S(=O)(=O)Nc1ccc(N2CCN(C)CC2)cc1 | – | inconclusive: 3.34% [signal inhibitor]
19 | COc1cc2c(cc1OC)-c1cc(=Nc3c(C)cc(C)cc3C)n(C)c(=O)n1CC2 | – | inactive
20 | N#CC1=C(N)S[C@H](C(=O)C23CC4CC(CC(C4)C2)C3)[C@H]1c1ccncc1 | – | inconclusive: -0.407% [signal inhibitor]
21 | CCCc1cnc2c(c1SCc1cccc(C)c1)c(=O)n(C)c(=O)n2C | – | inconclusive: 0.913% [signal inhibitor]
22 | COc1cc(OC)c(NC(=O)c2sc3nc4n(c(=O)c3c2C)CCCC4)cc1Cl | – | inconclusive: -1.37% [signal inhibitor]

Row | SMILES | Potency | IkBa stabilization activation
23 | CCN(CC)S(=O)(=O)c1ccc2nc(NC(=O)c3cccs3)sc2c1 | – | inconclusive: 0.785% [signal inhibitor]
24 | COc1ccc(-n2c(-c3ccccc3F)nc3c(cnn3-c3ccc(C)cc3)c2=O)cc1 | – | inconclusive: 3.02% [signal inhibitor]
25 | Cc1ccc(CCNC(=O)CN2C(=O)COc3ccc(S(=O)(=O)N4CCCC4)cc32)cc1 | – | inconclusive: -0.237% [signal inhibitor]
26 | CCCCC(=O)N1CC(=O)Nc2ccc(F)cc2C1c1ccc(F)cc1 (stereo not given) | – | inconclusive: 1.97% [signal inhibitor]
27 | OCCCSCCO | – | inactive: 0.511% [at 11.4 µM, scaled: untreated 0%, proteasome inhibitor 100%]
28 | CCn1c(CNC(=O)C23CC4CC(CC(C4)C2)C3)nnc1SCC(=O)Nc1ccc(C)cc1 | – | inconclusive: 2.09% [signal inhibitor]
29 | CC(C)(C)n1nnnc1C(c1cc2cc3c(cc2[nH]c1=O)OCO3)N1CCN(c2ccccc2)CC1 (stereo not given) | – | inconclusive: 1.36% [signal inhibitor]
30 | O=C1CC(SCc2nc3ccccc3[nH]2)C(=O)N1c1ccc(F)cc1 (stereo not given) | – | inconclusive: 10.8% [signal inhibitor]
31 | CCOc1ccccc1NC(=O)CSc1nc2ccccc2nc1Cc1ccc(C)cc1 | – | inconclusive: -1.5% [signal inhibitor]
32 | CCn1nc(C)c(NC(=O)CCCSc2nc(-c3ccco3)cc(C(F)(F)F)n2)c1C | – | inconclusive: 6.25% [signal inhibitor]
33 | CC(=O)c1ccc(NC(=O)c2sc(-n3nc(C)c(CCC(C)C)c3C)nc2C)cc1 | – | inconclusive: -0.326% [signal inhibitor]
34 | CC(=O)N1CCCC1c1nc2ccccc2n1Cc1c(F)cccc1Cl (stereo not given) | – | inconclusive: 1.39% [signal inhibitor]
35 | CCc1ccc(OCC(=O)Nc2ccc(S(=O)(=O)Nc3onc(C)c3C)cc2)cc1 | – | inconclusive: -1.08% [signal inhibitor]
36 | COC(=O)/C=C\c1cc(O)ccc1O | – | inconclusive: 19.3%
37 | Cc1ccccc1NC(=O)Nc1csc2c1CCCC2 | – | inconclusive: 0.653% [signal inhibitor]
38 | COc1ccc(C(=O)CSc2nc3cc(C(=O)NC4CCCC4)ccc3c(=O)n2CC2CCCO2)cc1 (stereo not given) | – | inactive
39 | COc1ccc2nc(NC(=O)C3CCCN(S(=O)(=O)c4cccs4)C3)sc2c1 (stereo not given) | – | inconclusive: 2.12% [signal inhibitor]
40 | CCOc1ccc(CN2C(=O)c3ccccc3Sc3ccc(C(=O)NCc4ccc5c(c4)OCO5)cc32)cc1 | – | inconclusive: -3.04% [signal inhibitor]
41 | CC(C)(C)n1ncc2c(=O)n(CC(=O)OCc3ccccc3)cnc21 | – | inactive
42 | COc1ccc(C2C(C(=O)Nc3ccccc3)=C(C)Nc3nc(-c4ccccc4)nn32)c(OC)c1 (stereo not given) | – | inconclusive: 9.9% [signal inhibitor]
43 | Cc1cccc(NC(=O)Cn2c(=O)n(CCc3ccccc3)c(=O)c3ccccc32)c1 | – | inconclusive: 3.14% [signal inhibitor]
44 | Cc1ccc(-c2cn(S(=O)(=O)c3cccc4nsnc34)nc2N)cc1 | – | inactive

Row | SMILES | Potency | IkBa stabilization activation
45 | CN(C)c1ccc(NC(=O)c2cccc(N3C(=O)C4C5C=CC(C5)C4C3=O)c2)cc1 (stereo not given) | – | inconclusive: 15.8% [signal inhibitor]
46 | Cc1cccc(N2CCN(C(=O)C3CCCN(S(=O)(=O)c4c(C)noc4C)C3)CC2)c1C (stereo not given) | – | inconclusive: 2.26% [signal inhibitor]
47 | O=C(Cn1c(=O)n(Cc2ccco2)c(=O)c2oc3ccccc3c21)Nc1ccc(F)cc1F | – | inconclusive: 6.27% [signal inhibitor]
48 | COc1cccc(NC(=O)Nc2cc(-c3cn4cccnc4n3)ccc2C)c1 | – | inactive
49 | COc1ccc(Nc2nc3ccccc3nc2C)cc1 | – | inactive
50 | CCC(Sc1nnc(C)n2c1cc1occc12)C(=O)Nc1ccccc1F (stereo not given) | – | inconclusive: 15.6% [signal inhibitor]
51 | Cn1c(=O)n(C)c2cc(NS(=O)(=O)c3ccccc3)c(NCc3ccccc3)cc21 | – | inconclusive: 10.3% [signal inhibitor]
52 | CCOC(=O)c1cnc2sc3c(n2c1=O)CCCC3 | – | inconclusive: 8.89% [signal inhibitor]
53 | O=C(Nc1cccc(Cl)c1)c1c(NC(=O)C(F)(F)F)sc2c1CCCC2 | – | inconclusive: -3.35% [signal inhibitor]
54 | CSc1nsc(NC(=O)Cc2ccccc2)n1 | inconclusive: 25.1 µM [signal inhibitor, single point] | –
55 | COc1ccc(S(=O)(=O)N(CC(=O)NCc2ccccc2OC)c2ccc(C)cc2)cc1 | – | inconclusive: 1.15% [signal inhibitor]
56 | CCOc1ccccc1N(C)C(=O)Cn1cnc2sc(C)c(S(=O)(=O)N3CCC(C)CC3)c2c1=O | – | inactive
57 | CCOCCOC(=O)c1ccc(NC(=O)/C=C/c2ccc(OC)c(OC)c2)cc1 | – | inconclusive: 1.58% [signal inhibitor]
58 | CCc1cc2c(cc3c(=O)n(CC(=O)N4CCN(c5cc(Cl)ccc5C)CC4)ncn32)s1 | – | inactive
59 | O=C(CSc1ncc2c(n1)-c1ccccc1N(Cc1ccc(F)cc1)S2(=O)=O)c1ccc(Cl)cc1 | – | inconclusive: 5.19% [signal inhibitor]
60 | CN(C)C(=O)c1ccc(-c2ccc3ncnc(NC4CCNCC4)c3c2)cc1 | – | inactive: 1.55% [at 11.4 µM, scaled: untreated 0%, proteasome inhibitor 100%]
61 | Cc1cccc(C)c1-n1ncc(C(=O)Nc2ccc3c(c2)OCCO3)c1C1CCN(C(=O)OC(C)(C)C)CC1 | – | inconclusive: 1.24% [signal inhibitor]
62 | COc1ccc(Nc2c(-c3cc(Br)ccc3O)nc3ncccn23)cc1OC | inconclusive: 20 µM [signal inhibitor, partial curve] | –
63 | COc1ccc(CC[N@+]2(C)COc3cc4oc(=O)cc(C)c4cc3C2)cc1OC | – | inactive: 0.22% [at 11.4 µM, scaled: untreated 0%, proteasome inhibitor 100%]
64 | Cc1ccc(NCc2cccn2-c2nnc(N3CCC(C(=O)NCc4ccc(OC(C)C)cc4)CC3)s2)cc1 | – | inconclusive: 2.3% [signal inhibitor]
65 | COc1ccccc1N1CCN(S(=O)(=O)c2c(C)sc3ncn(CC(=O)N(C)c4ccc(C(C)C)cc4)c(=O)c23)CC1 | – | inconclusive: 6.14% [signal inhibitor]
